Assay results as given in EPA's CvTdb concentration-time database.
The source gives many values for each of these; only a part stands here.

How the values were obtained:
Experiment in all cases: concentration in plasma after dosing
Rat [1] = settings: dosed: Anthraquinone, 400 mg/kg, oral, Female, F344
Rat [2] = settings: 2 min; dosed: Anthraquinone; 2 mg/kg; iv; Male; Harlan Sprague Dawley
Rat [3] = settings: dosed: Anthraquinone, 2 mg/kg, iv, Male, Harlan Sprague Dawley
Rat [4] = settings: dosed: Anthraquinone, 400 mg/kg, oral, Female, F344; remark: listed apart in the source
Rat [5] = settings: dosed: Anthraquinone, 2 mg/kg, iv, Male, Harlan Sprague Dawley; remark: listed apart in the source
Rat [6] = settings: dosed: Anthraquinone, 2 mg/kg, iv, Male, Harlan Sprague Dawley; remark: listed apart in the source
Rat [7] = settings: dosed: Anthraquinone, 2 mg/kg, iv, Male, Harlan Sprague Dawley; remark: listed apart in the source
Rat [8] = settings: 1 h; dosed: Anthraquinone; 2 mg/kg; iv; Male; Harlan Sprague Dawley
Rat [9] = settings: dosed: Anthraquinone, 400 mg/kg, oral, Female, F344; remark: listed apart in the source
Rat [10] = settings: dosed: Anthraquinone, 2 mg/kg, iv, Male, Harlan Sprague Dawley; remark: listed apart in the source
Rat [11] = settings: dosed: Anthraquinone, 400 mg/kg, oral, Female, F344; remark: listed apart in the source
Rat [12] = settings: dosed: Anthraquinone, 2 mg/kg, iv, Male, Harlan Sprague Dawley; remark: listed apart in the source
Rat [13] = settings: dosed: Anthraquinone, 2 mg/kg, iv, Male, Harlan Sprague Dawley; remark: listed apart in the source
Rat [14] = settings: dosed: Anthraquinone, 400 mg/kg, oral, Female, F344; remark: listed apart in the source
Rat [15] = settings: dosed: Anthraquinone, 2 mg/kg, iv, Male, Harlan Sprague Dawley; remark: listed apart in the source
Rat [16] = settings: dosed: Anthraquinone, 400 mg/kg, oral, Male, F344
Rat [17] = settings: dosed: Anthraquinone
Rat [18] = settings: dosed: Anthraquinone, 400 mg/kg, oral, Male, F344; remark: listed apart in the source
Rat [19] = settings: dosed: Anthraquinone, 2 mg/kg, iv, Male, Harlan Sprague Dawley; remark: listed apart in the source
Rat [20] = settings: dosed: Anthraquinone, 2 mg/kg, iv, Male, Harlan Sprague Dawley; remark: listed apart in the source
Rat [21] = settings: dosed: Anthraquinone, 2 mg/kg, iv, Male, Harlan Sprague Dawley; remark: listed apart in the source
Rat [22] = settings: dosed: Anthraquinone, 2 mg/kg, iv, Male, Harlan Sprague Dawley; remark: listed apart in the source
Rat [23] = settings: dosed: Anthraquinone, 400 mg/kg, oral, Female, F344; remark: listed apart in the source
Rat [24] = settings: dosed: Anthraquinone, 2 mg/kg, iv, Female, Harlan Sprague Dawley
Rat [25] = settings: dosed: Anthraquinone, 2 mg/kg, iv, Male, Harlan Sprague Dawley; remark: listed apart in the source
Rat [26] = settings: dosed: Anthraquinone, 2 mg/kg, iv, Male, Harlan Sprague Dawley; remark: listed apart in the source
Rat [27] = settings: dosed: Anthraquinone, 2 mg/kg, iv, Male, Harlan Sprague Dawley; remark: listed apart in the source
Rat [28] = settings: dosed: Anthraquinone, 2 mg/kg, iv, Male, Harlan Sprague Dawley; remark: listed apart in the source
Rat [29] = settings: dosed: Anthraquinone, 400 mg/kg, oral, Female, F344; remark: listed apart in the source
Rat [30] = settings: dosed: Anthraquinone, 2 mg/kg, iv, Male, Harlan Sprague Dawley; remark: listed apart in the source
Rat [31] = settings: dosed: Anthraquinone, 2 mg/kg, iv, Male, Harlan Sprague Dawley; remark: listed apart in the source
Rat [32] = settings: dosed: Anthraquinone, 400 mg/kg, oral, Female, F344; remark: listed apart in the source

O=C1c2ccccc2C(=O)c2ccccc21 [Anthraquinone]
Settings | concentration in plasma [ng/mL]
Rat [1], 0.5 h | 183
Rat [1], 24 h | 2920
Rat [3], 2 min | 4180
Rat [3], 10 h | 42
Rat [4], 0.5 h | 138
Rat [4], 24 h | 2390
Rat [5], 2 min | 4580
Rat [5], 10 h | 51
Rat [6], 5 h | 63
Rat [6], 20 min | 353
Rat [7], 7.5 h | 59
Rat [7], 10 min | 850
Rat [9], 1 h | 208
Rat [9], 18 h | 2460
Rat [10], 5 h | 88
Rat [10], 20 min | 443
Rat [11], 4 h | 395
Rat [11], 8 h | 2220
Rat [12], 1 h | 197
Rat [12], 2 h | 73
Rat [13], 1 h | 165
Rat [13], 2 h | 112
Rat [14], 4 h | 393
Rat [14], 8 h | 1500
Rat [15], 7.5 h | 44
Rat [15], 10 min | 681
Rat [16], 4 h | 412
Rat [16], 8 h | 1600
Rat [18], 4 h | 628
Rat [18], 8 h | 1830
Rat [19], 2 h | 68
Rat [19], 40 min | 242
Rat [20], 1 h | 137
Rat [20], 40 min | 147
Rat [21], 2 h | 79
Rat [21], 40 min | 272
Rat [22], 5 h | 81
Rat [22], 20 min | 448
Rat [23], 1 h | 220
Rat [23], 18 h | 3920
Rat [24], 7.5 h | 43
Rat [24], 10 min | 693
Rat [25], 1 h | 168
Rat [25], 40 min | 221
Rat [26], 2 h | 84
Rat [26], 40 min | 202
Rat [27], 2 min | 2270
Rat [27], 10 h | 46
Rat [28], 5 h | 79
Rat [28], 20 min | 425
Rat [29], 2 h | 403
Rat [29], 12 h | 3270
Rat [30], 5 h | 75
Rat [30], 20 min | 442
Rat [31], 7.5 h | 60
Rat [31], 10 min | 1060
Rat [32], 2 h | 231
Rat [32], 12 h | 2550

Settings | concentration in plasma [ng/mL]
Rat [2] | 1310
Rat [8] | 184

concentration in plasma [ng/mL], Rat [17]
Settings | Female | Male
0.5 h, 400 mg/kg, oral, F344 | 106 | –
1 h, 2 mg/kg, iv, Harlan Sprague Dawley | – | 199
1 h, 400 mg/kg, oral, F344 | 162 | –
2 h, 2 mg/kg, iv, Harlan Sprague Dawley | – | 135
2 h, 400 mg/kg, oral, F344 | 318 | 236
2 min, 2 mg/kg, iv, Harlan Sprague Dawley | 4080 | 2200
4 h, 400 mg/kg, oral, F344 | 638 | 419
5 h, 2 mg/kg, iv, Harlan Sprague Dawley | – | 70
7.5 h, 2 mg/kg, iv, Harlan Sprague Dawley | 33 | 43
8 h, 400 mg/kg, oral, F344 | 2260 | 1700
10 min, 2 mg/kg, iv, Harlan Sprague Dawley | 557 | 1040
12 h, 400 mg/kg, oral, F344 | 2860 | 2060
18 h, 400 mg/kg, oral, F344 | 2870 | –
20 min, 2 mg/kg, iv, Harlan Sprague Dawley | – | 543
24 h, 400 mg/kg, oral, F344 | 2890 | –
40 min, 2 mg/kg, iv, Harlan Sprague Dawley | – | 289
